Results reported in publication PMC7819943, “Rice protein-binding microarrays: a tool to detect cis-acting elements near promoter regions in rice”.
The other results are listed elsewhere or left out.

target: T1, OsWOX13 (Oryza sativa, UniProt Q5QMM3 1-267); experiment: protein-binding microarray (RPBM); PBS, 2% BSA, 51.3 ng/ul salmon testes DNA, 50 uM zinc acetate, 200 nM TF, 25 C, 1 h; high values mean tight binding; details: protein: recombinant; tags: N-terminal polyhistidine and DsRed monomer fusion (pET32a); label: CyDye5-dUTP incorporated in the synthesized complementary strand; 3' TTTTT single-stranded linker to array surface; dsDNA, one strand shown
T1 sequence: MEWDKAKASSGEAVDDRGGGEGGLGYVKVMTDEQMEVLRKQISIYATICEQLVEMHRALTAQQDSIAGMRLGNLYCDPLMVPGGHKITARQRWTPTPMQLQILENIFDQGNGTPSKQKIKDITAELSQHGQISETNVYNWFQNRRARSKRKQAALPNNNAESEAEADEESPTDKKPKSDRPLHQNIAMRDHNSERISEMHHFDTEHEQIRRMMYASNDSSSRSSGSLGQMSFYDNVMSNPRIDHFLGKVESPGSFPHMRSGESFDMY
In short: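 The binding signal for each feature is its fluorescence intensity in arbitrary units. An Axon 4000B scanner was used to read a custom Agilent array that had been made double-stranded with Cy5-dUTP primer extension, blocked with 2% BSA, incubated at 25 °C for 1 h with 200 nM protein in PBS, 2% BSA, salmon testes DNA and 50 µM zinc acetate, and washed. The protein was an N-terminal polyhistidine–DsRed transcription factor fusion from E. coli BL21-CodonPlus, purified on Ni–NTA.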

Going from “CAGTATATTGATACACTGATGCAATCATACAATATTGTGACGGAGTCACCTAGTGCAG” to “ACCGTGATGAGCAGCTCCGTGCAGTTTATTTTGGTCAGATCGGAGTCACCTAGTGCAG”, the binding signal rises from 5680 fluorescence intensity (a.u.) to 7060 fluorescence intensity (a.u.).

Going from “ATAAATTACCTAATGCAGTGGGCTGGTCTGGTGCATCGCCCGGAGTCACCTAGTGCAG” to “ACTGTCAAATCATGGCACAATTAGGCTTAAAATATTCGTCCGGAGTCACCTAGTGCAG”, the binding signal falls from 18800 fluorescence intensity (a.u.) to 5650 fluorescence intensity (a.u.).

First: CTACAAATTAATAATTAGTGACGTTGATTATATATCAAAACGGAGTCACCTAGTGCAG
Second: AGTAAAACAGAATGCCAAATTAGTGCACGATTAAGGCCCTCGGAGTCACCTAGTGCAG
The binding signal of the first is higher: 29000 fluorescence intensity (a.u.) for the first, 4250 fluorescence intensity (a.u.) for the second.

First: AACTCAATTTGTATAGTTAAGGGACATAAAATGGACTTTGCGGAGTCACCTAGTGCAG
Second: TAAACCTAATTAATCTATAATTAGATAATGTTTACTGTAGCGGAGTCACCTAGTGCAG
The binding signal of the first is lower: 4960 fluorescence intensity (a.u.) for the first, 40200 fluorescence intensity (a.u.) for the second.

Going from “AGATAATCCATAATAATAATTAGCTTAATAATCTAAATCACGGAGTCACCTAGTGCAG” to “CATATGATCTGGCTAACTGGCTTGACTTAACCAACTATATCGGAGTCACCTAGTGCAG”, the binding signal falls from 10800 fluorescence intensity (a.u.) to 4350 fluorescence intensity (a.u.).

Compared with “TGATTAATGAGAGAACAGATTCGCCATGGCCACAAGCACGCGGAGTCACCTAGTGCAG”, “GTGCCATCCTGATTTGTCCCTCCCTGTCGCCTCACTGTTTCGGAGTCACCTAGTGCAG” is higher in binding signal: 3520 fluorescence intensity (a.u.) for the first, 6910 fluorescence intensity (a.u.) for the second.

Going from “TGGCGCCAACAAGGTAACTTAATTGAGGCTTTAATTGAGGCGGAGTCACCTAGTGCAG” to “CCAATTAATTAATCCTTCGTCCTCACCATCCAAAATGTTTCGGAGTCACCTAGTGCAG”, the binding signal rises from 8120 fluorescence intensity (a.u.) to 32100 fluorescence intensity (a.u.).

Compared with “CAGAATTTACAAAATGGATTGACCAAAAGCCTAATTAATTCGGAGTCACCTAGTGCAG”, “TTCAAATTTATGGTATTAGGATGTGTTATATCTAGTACTACGGAGTCACCTAGTGCAG” is lower in binding signal: 7770 fluorescence intensity (a.u.) for the first, 3530 fluorescence intensity (a.u.) for the second.

Going from “ACATGATTTTCACATTTCTAACACTTGATATTTCTCCTTACGGAGTCACCTAGTGCAG” to “TAACGTGATTATAACATGTCAAACCATTTTACTTAGCCAGCGGAGTCACCTAGTGCAG”, the binding signal rises from 5510 fluorescence intensity (a.u.) to 24600 fluorescence intensity (a.u.).

First: AAGATGTTGGCTTAAATTGAAATTACATACTAATTACACTCGGAGTCACCTAGTGCAG
Second: TTAAAATAAAACATTGTCATTGACATGATTATGCATGAAACGGAGTCACCTAGTGCAG
The binding signal of the first is higher: 12000 fluorescence intensity (a.u.) for the first, 4650 fluorescence intensity (a.u.) for the second.

First: TCTGACTGCAGGATGGAAGATTGTAAGTACTGTACTAAACCGGAGTCACCTAGTGCAG
Second: ACATCTAATTTATTACTAGTTCACATTTAATATGTATATACGGAGTCACCTAGTGCAG
The binding signal of the first is lower: 4650 fluorescence intensity (a.u.) for the first, 7800 fluorescence intensity (a.u.) for the second.

In the case of “GTAGATATAGATAGATAGATTTAATTTTGATAATGGATAGCGGAGTCACCTAGTGCAG”, the binding signal is reported as 31800 fluorescence intensity (a.u.).
